For this assay, the target named is Vamp3 (mouse) (UniProt P63024). Kind of assay: co-IP; HEK293T cells co-transfected with SLC9A9 and the partner plasmid, collected 36 h after transfection; lysed in 50 mM Tris-HCl pH 7.4, 1 mM EDTA, 150 mM NaCl, 1% Triton; protein A/G Plus-Agarose and 3 ug antibody, 12 h at 4 C, 5 washes; immunoblot; some samples with amiloride treatment (interaction inhibited). A general note: Immunoblotting shows a protein as a band on a membrane.

Sequences of proteins named here, by UniProt entry; tags and fusion partners are left off.
UniProt P63024: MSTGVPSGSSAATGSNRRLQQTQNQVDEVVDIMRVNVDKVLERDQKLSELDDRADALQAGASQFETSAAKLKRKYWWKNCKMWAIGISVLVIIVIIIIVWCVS

These are yes or no findings as the source states them, for the method shown. Binding seen in cells or lysates may run through a third protein.

B1: Endosomal solute carrier family 9 member A9 (SLC9A9) (protein, UniProt Q8BZ00 1-644)
chain: MAGQLRFTSGKDEDHFQHQGAVELLAFNFLLILTILTIWLFKNHRFRFLHETGGAMVYGLIMGLILRYATAPTDIDSGTVYNCGNLFFSPSTLLVNITDQVYEYKYQREINQHNISPHQGNAILEKMTFDPEIFFNVLLPPIIFHAGYSLKKRHFFQNLGSILTYAFLGTAISCVVIGLIMYGFVKAMVHAGQLKSGDFHFTDCLFFGSLMSATDPVTVLAIFHELHVDPDLYTLLFGESVLNDAVAIVLTYSISIYSPKENPNAFDTAAFFQSVGNFLGIFAGSFAMGSAYAVVTALLTKFTKLREFPMLETGLFFLLSWSAFLSAEAAGLTGIVAVLFCGVTQAHYTYNNLSSDSKLRTKQLFEFMNFLAENVIFCYMGLALFTFQNHIFNALFILGAFLAIFVARACNIYPLSFLLNLGRKQKIPWNFQHMMMFSGLRGAIAFALAIRNTESQPKQMMFTTTLLLVFFTVWVFGGGTTPMLTWLQIRVGVDLDESLKEEPSSQQEANKLDKNMTKTESAQLFRMWYGFDHKYLKPILTHSGPPLTTTLPAWCGPVSRLLTSPQAYGEQLKEDDVECIVNQDELAMNYQEQSPSPSSPTTKLALDQKSSGQTPGKENIYEGDLGLGGYDLKLEQTRGQPQMD
For the molecule B1, the binding result was “no binding”.

Values taken from paper PMC12537989.
